# Source: the BET-seq Pho4 binding data (Le et al. 2018)
# The other results are listed elsewhere or left out. Values were computed here from the reads of four pooled replicates and scatter widely.
# Target: T1, Pho4 (S. cerevisiae) (UniProt P07270)
# T1 sequence: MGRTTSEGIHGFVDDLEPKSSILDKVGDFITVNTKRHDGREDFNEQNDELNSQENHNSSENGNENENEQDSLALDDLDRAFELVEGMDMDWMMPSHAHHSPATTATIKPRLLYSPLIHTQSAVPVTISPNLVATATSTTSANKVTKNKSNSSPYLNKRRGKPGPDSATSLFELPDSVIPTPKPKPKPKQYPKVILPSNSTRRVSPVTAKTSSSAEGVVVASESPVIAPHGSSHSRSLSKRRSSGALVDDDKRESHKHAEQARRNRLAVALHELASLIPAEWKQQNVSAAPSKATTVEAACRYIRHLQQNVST
# Assay: relative binding free energy (BET-seq); higher = weaker binding
# Details: reference: library average
row,Sequence,relative binding free energy [kcal/mol]
1,TGAGTCACGTGGCGTA,0
2,TTATACACGTGTGATG,-0.03
3,GGGGCCACGTGATGTG,0.04
4,TGTTGCACGTGAGTTA,0.22
5,ATGCGCACGTGGTGGT,-0.23
6,AGTAGCACGTGTGCCT,0.01
7,GGAGCCACGTGATGGT,0
8,TGGTGCACGTGAAGTA,0.07
9,TGTTGCACGTGATGAG,0.03
10,TGGCGCACGTGGTGTT,-0.14
11,TTTTGCACGTGTAGTC,0.18
12,TAAGGCACGTGGATTA,0.09
13,TTCATCACGTGTATAT,0.1
14,CTGGGCACGTGGATTG,-0.08
15,CGTTGCACGTGTGTAT,0.01
16,TCGAACACGTGGTTTG,-0.07
17,GGTGACACGTGAGCGA,0.34
18,TGAGACACGTGTTCGT,0.02
19,GCTATCACGTGAAGTG,0.45
20,ACGGGCACGTGGATTG,-0.07
21,CTGTGCACGTGAGGAG,0.17
22,GGGTGCACGTGGAGCA,0.05
23,TTACGCACGTGGAGTG,-0.06
24,ACAGTCACGTGAGGGT,0.13
25,GGTGGCACGTGGATTT,0.04

row,Sequence,relative binding free energy [kcal/mol]
1,AGTGACACGTGTTTGT,-0.06
2,TGATTCACGTGTGCTT,0.28
3,ACATGCACGTGGTGGT,-0.26
4,GGTAGCACGTGTCGGC,-0.08
5,TATTTCACGTGTGGAT,0.37
6,AGGGGCACGTGGAATA,-0.09
7,TGCGACACGTGAGGTA,0.2
8,TGGTTCACGTGAGGGG,0.48
9,GTCTACACGTGTAGGT,0.17
10,GGGCACACGTGTGTTT,0.03
11,TAGGGCACGTGTGTGT,-0.03
12,AGGGTCACGTGTAAAG,0.18
13,ATTGACACGTGCTGTG,-0.03
14,GACGTCACGTGGGTGA,0.19
15,GTGGTCACGTGGGATG,0.07
16,GGAAGCACGTGAGTTG,0.26
17,TTACACACGTGAGGGA,0.21
18,TTTTGCACGTGGCTTG,-0.12
19,TGATTCACGTGCAGGA,0.26
20,AATGGCACGTGAGGCA,0.18
21,TGTATCACGTGGACTT,0.12
22,ATAGACACGTGTTTGA,0.03
23,TGAGTCACGTGCTGAT,0.04
24,ATTGTCACGTGGCTGA,0.01
25,TTGTACACGTGACTTT,0.21

row,Sequence,relative binding free energy [kcal/mol]
1,GTTGACACGTGCAGTG,0.09
2,TTATTCACGTGAGTTC,0.36
3,CTAAACACGTGAGGGT,0.1
4,GAGTGCACGTGTAAGT,0.11
5,AGGAACACGTGGGGCT,-0.12
6,TGGCTCACGTGTGTCG,0.24
7,TGTCGCACGTGGCTAG,-0.02
8,AGTGTCACGTGATATG,0.26
9,TATTACACGTGTTAAA,0.25
10,TCGGTCACGTGGGGGG,0.04
11,TGGTTCACGTGTAATA,0.25
12,AGCTGCACGTGGTCGT,-0.08
13,TGCTTCACGTGGTCGG,0.13
14,ATTTGCACGTGGATTT,0.07
15,TAAAACACGTGGTGGG,-0.01
16,CAGAGCACGTGTGTTA,-0.03
17,AGCTGCACGTGGTGGG,-0.14
18,GGAAACACGTGAGTGT,0.33
19,AAGTCCACGTGTTAGT,0.06
20,GTAATCACGTGGGTAT,0.09
21,TATATCACGTGGTCAG,0.09
22,CTATTCACGTGGAGTG,0.14
23,GGAGGCACGTGCTGTA,-0.21
24,GTTATCACGTGTAGGT,0.24
25,GGGGTCACGTGAGATG,0.3

row,Sequence,relative binding free energy [kcal/mol]
1,GTTAACACGTGGCGGG,-0.06
2,TAACTCACGTGTGGTT,0.34
3,CTTTTCACGTGGGTGA,0.09
4,GCTGTCACGTGGGGCA,-0.05
5,CCTTGCACGTGGGGGA,-0.11
6,GGGGTCACGTGAGAAG,0.46
7,CGGTACACGTGGCTGG,0.02
8,GCCGGCACGTGTGGGG,-0.06
9,CGAGTCACGTGTGGCG,0.03
10,ATTTACACGTGTATTG,0.13
11,CTGGGCACGTGGGCGT,-0.2
12,TCTTACACGTGGTCGG,0
13,TAGTTCACGTGGTCAT,0.08
14,TTTAGCACGTGGTCTG,-0.16
15,GATTACACGTGTGAAG,0.22
16,AGTGCCACGTGGTTGC,-0.16
17,CTGTCCACGTGTTGTG,0.09
18,GAGGTCACGTGTGAAA,0.37
19,TTCGGCACGTGCTGCG,-0.13
20,GGAATCACGTGATTGA,0.31
21,CGTTCCACGTGGGATG,0.05
22,TTAGGCACGTGGACAT,-0.21
23,TTTCTCACGTGCGGGA,0.21
24,AACTGCACGTGTTTGT,-0.08
25,TTAGTCACGTGAAAGT,0.28

row,Sequence,relative binding free energy [kcal/mol]
1,AGCGTCACGTGTGGTG,0.11
2,GGAGGCACGTGGTCGC,-0.16
3,AGTCGCACGTGAGGGT,0.16
4,TGCAGCACGTGAGTTG,0.16
5,AGCAGCACGTGTATGT,-0.08
6,GGCTGCACGTGTTGGA,-0.05
7,TGACACACGTGTGAGG,0.06
8,TTATTCACGTGAGATG,0.39
9,CGATTCACGTGGGATT,0.29
10,GATGGCACGTGCTGAT,-0.06
11,TGGGTCACGTGAAGGC,0.24
12,TGATTCACGTGAAAAG,0.39
13,AGAGGCACGTGTCAGG,-0.06
14,CTTGTCACGTGTCGGG,0.21
15,GGGGGCACGTGTAGTT,0.03
16,TAAGACACGTGAATGT,0.37
17,TTTGCCACGTGAGGTC,0.27
18,AGTTGCACGTGATGTT,0.21
19,TATGTCACGTGGCTGG,0.04
20,GGGCTCACGTGAAGAT,0.49
21,CTTTTCACGTGGTTTC,0.29
22,TAGCTCACGTGGGGAA,0.11
23,AGGGACACGTGTGCTT,-0.04
24,TAGGACACGTGGCTTT,-0.04
25,TATTGCACGTGGAGGA,-0.08

row,Sequence,relative binding free energy [kcal/mol]
1,GTTGACACGTGTACTG,0.06
2,GGGGTCACGTGACATT,0.34
3,TTGACCACGTGATTTT,0.27
4,CATTGCACGTGGGTGC,-0.07
5,GAAGGCACGTGGGCAT,-0.1
6,GATTTCACGTGGGTTG,0.3
7,GTTGACACGTGAGAAG,0.27
8,TCGGGCACGTGGTAAG,-0.13
9,TATTGCACGTGTGGGG,0.09
10,TTATTCACGTGTGCTG,0.21
11,GGTTTCACGTGTAGAT,0.43
12,ACAGGCACGTGGGCGT,-0.24
13,GTGATCACGTGTGGGG,0.07
14,AAGTTCACGTGCTGTT,0.09
15,CGGGTCACGTGCGGGA,0.16
16,TGCGTCACGTGGAGAG,0.08
17,TGTAACACGTGTTAGA,-0.01
18,CATGCCACGTGGTGGT,-0.24
19,AGGGTCACGTGGGGGC,-0.03
20,GTCGTCACGTGCTGGT,0.08
21,GTGTTCACGTGTCAAG,0.27
